# Data published in the supplement of paper PMC12217912.
# Some of the results follow. The full chains were built here from the parent and the listed change. Values near 0.05 are background.
# B1: TEV protease; numbered along this chain (parent)
# chain: MGESLFKGPRDYNPISSSICHLTNESDGHTTSLYGIGFGPFIITNKHLFRRNNGTLVVQSLHGVFKVKDTTTLQQHLVDGRDMIIIRMPKDFPPFPQKLKFREPQREERICLVTTNFQTKSMSSMVSDTSCTFPSGDGIFWKHWIQTKDGQCGSPLVSTRDGFIVGIHSASNFTNTNNYFTSVPKNFMELLTNQEAQQWVSGWRLNADSVLWGGHKVFMVKPEEPFQPVKEATQL
# Variants of: B1
# Assay: raw area under fraction-flipped curve 0-4 h after induction (AUC4h, not background-subtracted), DNA-recorder readout of cleavage of the substrate (dimensionless); higher = more cleavage of the substrate by the protease variant
# Conditions: temperature: 34 °C; time window: 0-4 h after rhamnose induction
# 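Note: Bxb1 expression induced with 0.2% (w/v) L-rhamnose at OD600 near 0.5, cultures sampled hourly, flipped fraction per protease–substrate barcode pair counted by paired-end Illumina sequencing.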
Variant,area with substrate ENAYFQS,area with substrate ENCYFQS,area with substrate ENEYFQS,area with substrate ENGYFQS,area with substrate ENIYFQS,area with substrate ENMYFQS,area with substrate ENNYFQS,area with substrate ENSYFQS,area with substrate ENTYFQS,area with substrate ENYYFQS
MGESLFKGPRDYNPISSSICHLTNESDGHTTSLYGIGFGPFIITNKHLFRRNNGTLVVQSLHGVFKVKDTTTLQQHLVDGRDMIIIRMPKDFPPFPQKLKFREPQREERICLVTTNFQTKSMSSMVSDTSCTFPSGDGIFWKHWIQTKDGQCGSPLVSTRDGFIVGIHSASNFTNTNNYFTSVPVNFMELLTNQEAQQWVSGWRLNADSVLWGGHKVFMVKPEEPFQPVKEATQL [K185V],0.0542,0.08,0.0553,0.0696,0.0985,0.0837,0.0515,0.0668,0.0491,0.0614
MGESLFKGPRDYNPISSSICHLTNESDGHTTSLYGIGFGPFIITNKHLFRRNNGTLVVQSLHGVFKVKDTTTLQQHLVDGRDMIIIRMPKDFPPFPQKLKFREPQREERICLVTTNFQTKSMSSMVSDTSCTFPSGDGIFWKHWIQTKDGQCGSPLVSTRDGFIVGIHSASNFTNTNNYFTSVPKFFMELLTNQEAQQWVSGWRLNADSVLWGGHKVFMVKPEEPFQPVKEATQL [N186F],0.0835,0.0834,,,,,,,,
MGESLFKGPRDYNPISSSICHLTNESDGHTTSLYGIGFGPFIITNKHLFRRNNGTLVVQSLHGVFKVKDTTTLQQHLVDGRDMIIIRMPKDFPPFPQKLKFREPQREERICLVTTNFQTKSMSSMVSDTSCTFPSGDGIFWKHWIQTKDGQCGSPLVSTRDGFIVGIHSASNFTNTNNYFTSVPKNAMELLTNQEAQQWVSGWRLNADSVLWGGHKVFMVKPEEPFQPVKEATQL [F187A],0.0589,0.0564,0.0576,0.0519,0.0847,0.0571,0.0507,0.0642,0.067,0.0511
MGESLFKGPRDYNPISSSICHLTNESDGHTTSLYGIGFGPFIITNKHLFRRNNGTLVVQSLHGVFKVKDTTTLQQHLVDGRDMIIIRMPKDFPPFPQKLKFREPQREERICLVTTNFQTKSMSSMVSDTSCTFPSGDGIFWKHWIQTKDGQCGSPLVSTRDGFIVGIHSASNFTNTNNYFTSVPKNGMELLTNQEAQQWVSGWRLNADSVLWGGHKVFMVKPEEPFQPVKEATQL [F187G],0.0697,,0.0548,0.0465,,,0.0543,,0.0559,0.0427
MGESLFKGPRDYNPISSSICHLTNESDGHTTSLYGIGFGPFIITNKHLFRRNNGTLVVQSLHGVFKVKDTTTLQQHLVDGRDMIIIRMPKDFPPFPQKLKFREPQREERICLVTTNFQTKSMSSMVSDTSCTFPSGDGIFWKHWIQTKDGQCGSPLVSTRDGFIVGIHSASNFTNTNNYFTSVPKNFMLLLTNQEAQQWVSGWRLNADSVLWGGHKVFMVKPEEPFQPVKEATQL [E189L],0.0625,,0.0633,0.0543,0.119,0.0714,,0.064,0.0543,
MGESLFKGPRDYNPISSSICHLTNESDGHTTSLYGIGFGPFIITNKHLFRRNNGTLVVQSLHGVFKVKDTTTLQQHLVDGRDMIIIRMPKDFPPFPQKLKFREPQREERICLVTTNFQTKSMSSMVSDTSCTFPSGDGIFWKHWIQTKDGQCGSPLVSTRDGFIVGIHSASNFTNTNNYFTSVPKNFMYLLTNQEAQQWVSGWRLNADSVLWGGHKVFMVKPEEPFQPVKEATQL [E189Y],0.0492,,0.0562,,,0.0811,,0.0624,,
MGESLFKGPRDYNPISSSICHLTNESDGHTTSLYGIGFGPFIITNKHLFRRNNGTLVVQSLHGVFKVKDTTTLQQHLVDGRDMIIIRMPKDFPPFPQKLKFREPQREERICLVTTNFQTKSMSSMVSDTSCTFPSGDGIFWKHWIQTKDGQCGSPLVSTRDGFIVGIHSASNFTNTNNYFTSVPKNFMEDLTNQEAQQWVSGWRLNADSVLWGGHKVFMVKPEEPFQPVKEATQL [L190D],0.0434,0.066,,,,0.0727,0.098,,,
MGESLFKGPRDYNPISSSICHLTNESDGHTTSLYGIGFGPFIITNKHLFRRNNGTLVVQSLHGVFKVKDTTTLQQHLVDGRDMIIIRMPKDFPPFPQKLKFREPQREERICLVTTNFQTKSMSSMVSDTSCTFPSGDGIFWKHWIQTKDGQCGSPLVSTRDGFIVGIHSASNFTNTNNYFTSVPKNFMENLTNQEAQQWVSGWRLNADSVLWGGHKVFMVKPEEPFQPVKEATQL [L190N],0.0664,,0.0543,,,,,,,
MGESLFKGPRDYNPISSSICHLTNESDGHTTSLYGIGFGPFIITNKHLFRRNNGTLVVQSLHGVFKVKDTTTLQQHLVDGRDMIIIRMPKDFPPFPQKLKFREPQREERICLVTTNFQTKSMSSMVSDTSCTFPSGDGIFWKHWIQTKDGQCGSPLVSTRDGFIVGIHSASNFTNTNNYFTSVPKNFMETLTNQEAQQWVSGWRLNADSVLWGGHKVFMVKPEEPFQPVKEATQL [L190T],0.0735,0.0764,0.0462,,,0.0902,0.0765,0.0661,0.0784,0.0086

# Same assay, conditions: temperature: 34 °C; time window: 0-4 h after rhamnose induction
Variant,area with substrate ENFYFQS,area with substrate ENHYFQS,area with substrate ENKYFQS,area with substrate ENPYFQS,area with substrate ENVYFQS,area with substrate ENDYFQS,area with substrate ENQYFQS,area with substrate ENRYFQS,area with substrate ENWYFQS
MGESLFKGPRDYNPISSSICHLTNESDGHTTSLYGIGFGPFIITNKHLFRRNNGTLVVQSLHGVFKVKDTTTLQQHLVDGRDMIIIRMPKDFPPFPQKLKFREPQREERICLVTTNFQTKSMSSMVSDTSCTFPSGDGIFWKHWIQTKDGQCGSPLVSTRDGFIVGIHSASNFTNTNNYFTSVPKFFMELLTNQEAQQWVSGWRLNADSVLWGGHKVFMVKPEEPFQPVKEATQL [N186F],0.053,0.0513,0.0581,0.0753,0.0527,,,,
MGESLFKGPRDYNPISSSICHLTNESDGHTTSLYGIGFGPFIITNKHLFRRNNGTLVVQSLHGVFKVKDTTTLQQHLVDGRDMIIIRMPKDFPPFPQKLKFREPQREERICLVTTNFQTKSMSSMVSDTSCTFPSGDGIFWKHWIQTKDGQCGSPLVSTRDGFIVGIHSASNFTNTNNYFTSVPKNAMELLTNQEAQQWVSGWRLNADSVLWGGHKVFMVKPEEPFQPVKEATQL [F187A],,,,0.0586,,0.0568,0.0519,0.0515,
MGESLFKGPRDYNPISSSICHLTNESDGHTTSLYGIGFGPFIITNKHLFRRNNGTLVVQSLHGVFKVKDTTTLQQHLVDGRDMIIIRMPKDFPPFPQKLKFREPQREERICLVTTNFQTKSMSSMVSDTSCTFPSGDGIFWKHWIQTKDGQCGSPLVSTRDGFIVGIHSASNFTNTNNYFTSVPKNGMELLTNQEAQQWVSGWRLNADSVLWGGHKVFMVKPEEPFQPVKEATQL [F187G],0.062,0.0785,0.0441,0.0512,0.0263,0.0414,0.0544,0.0642,
MGESLFKGPRDYNPISSSICHLTNESDGHTTSLYGIGFGPFIITNKHLFRRNNGTLVVQSLHGVFKVKDTTTLQQHLVDGRDMIIIRMPKDFPPFPQKLKFREPQREERICLVTTNFQTKSMSSMVSDTSCTFPSGDGIFWKHWIQTKDGQCGSPLVSTRDGFIVGIHSASNFTNTNNYFTSVPKNFMLLLTNQEAQQWVSGWRLNADSVLWGGHKVFMVKPEEPFQPVKEATQL [E189L],0.0556,0.0628,,0.058,,0.0559,0.0601,,
MGESLFKGPRDYNPISSSICHLTNESDGHTTSLYGIGFGPFIITNKHLFRRNNGTLVVQSLHGVFKVKDTTTLQQHLVDGRDMIIIRMPKDFPPFPQKLKFREPQREERICLVTTNFQTKSMSSMVSDTSCTFPSGDGIFWKHWIQTKDGQCGSPLVSTRDGFIVGIHSASNFTNTNNYFTSVPKNFMYLLTNQEAQQWVSGWRLNADSVLWGGHKVFMVKPEEPFQPVKEATQL [E189Y],,0.0476,0.0562,,,,,,
MGESLFKGPRDYNPISSSICHLTNESDGHTTSLYGIGFGPFIITNKHLFRRNNGTLVVQSLHGVFKVKDTTTLQQHLVDGRDMIIIRMPKDFPPFPQKLKFREPQREERICLVTTNFQTKSMSSMVSDTSCTFPSGDGIFWKHWIQTKDGQCGSPLVSTRDGFIVGIHSASNFTNTNNYFTSVPKNFMEDLTNQEAQQWVSGWRLNADSVLWGGHKVFMVKPEEPFQPVKEATQL [L190D],0.0478,0.0791,0.0577,,0.0798,,,,0.0657
MGESLFKGPRDYNPISSSICHLTNESDGHTTSLYGIGFGPFIITNKHLFRRNNGTLVVQSLHGVFKVKDTTTLQQHLVDGRDMIIIRMPKDFPPFPQKLKFREPQREERICLVTTNFQTKSMSSMVSDTSCTFPSGDGIFWKHWIQTKDGQCGSPLVSTRDGFIVGIHSASNFTNTNNYFTSVPKNFMENLTNQEAQQWVSGWRLNADSVLWGGHKVFMVKPEEPFQPVKEATQL [L190N],,,,,,,,0.0624,
MGESLFKGPRDYNPISSSICHLTNESDGHTTSLYGIGFGPFIITNKHLFRRNNGTLVVQSLHGVFKVKDTTTLQQHLVDGRDMIIIRMPKDFPPFPQKLKFREPQREERICLVTTNFQTKSMSSMVSDTSCTFPSGDGIFWKHWIQTKDGQCGSPLVSTRDGFIVGIHSASNFTNTNNYFTSVPKNFMETLTNQEAQQWVSGWRLNADSVLWGGHKVFMVKPEEPFQPVKEATQL [L190T],0.0696,,0.0613,0.0547,,0.0678,0.0889,0.0568,
